In ChEMBL document CHEMBL4888484, “Replenishing the malaria drug discovery pipeline: Screening and hit evaluation of the MMV Hit Generation Library 1 (HGL1) against asexual blood stage Plasmodium falciparum ,using a nano luciferase reporter read-out” (2022):
The campaign covered roughly 150,000 compounds. About 540 (0.36%) showed an effect of 50% or more. Some of the results follow.

test system: Plasmodium falciparum; experiment: Primary screen in NF54 nanoGlo assay, in single point, at 2uM, 72h; a lower Z score goes with more inhibition; type: functional, Erythrocyte; conditions: timepoint 72 hour

| Structure (SMILES) | % Inhibition | Z score |
| --- | --- | --- |
| COC[C@H]1COCCN1C(=O)Nc1ccncc1OC(C)C | -17% | 2.73 |
| O=C(COc1ccccc1)N[C@H]1CCCNC1=O | 2% | -0.34 |
| Cc1ccc(CN2C(=O)N[C@]3(CCN(C(=O)c4ccc(Cl)cc4)C3)C2=O)cc1 | -6% | 0.72 |
| O=C(Nc1cccc(F)c1)[C@]1(O)CCOC1 | -15% | 1.76 |
| CCc1nc(Cn2cc(C(C)=O)c(=O)n(C)c2=O)cs1 | 0% | -0.03 |
| CCN(C(=O)CCC(=O)N1CCC(Cc2nncn2CC2CC2)CC1)c1ccccc1 | -5% | 0.63 |
| O=C(C1CC=CCC1)N1CCC(Oc2cnsn2)C1 (configuration not stated) | -7% | 1.16 |
| C[C@H](Nc1ccn(CCc2ccncc2)n1)c1ccccn1 | 0% | -0.06 |
| COc1cccc(C2CN(C(=O)CC(C)(C)C)CC2C(=O)NCc2ccccn2)c1OC (configuration not stated) | -24% | 2.53 |
| CC(C)c1occc1C(=O)N1CCO[C@@H](CF)C1 | -2% | 0.25 |
| CN1CCc2ncnc(N3CCO[C@H](C(N)=O)C3)c2C1 | -2% | 0.27 |
| Cc1ccc(Cn2cccc2C(=O)C(=O)NC2CCCCC2)cc1C | 1% | -0.08 |
| OC(COCc1ccccc1)CN(Cc1cccc(F)c1)CC1CC(c2ccccc2)=NO1 (configuration not stated) | -9% | 1.2 |
| N#Cc1cc(-c2cccc(C(=O)N3C[C@H](CO)[C@@H](CO)C3)c2)ccc1F | 0% | -0.08 |
| CC(C)c1cc(CNCc2cc(Cl)ccc2OC[C@@H](O)CN2CCCCCC2)on1 | -4% | 0.62 |
| C[C@@H](C(=O)N(C)Cc1ccsc1)S(C)(=O)=O | 0% | 0 |
| Cc1cc(CNC[C@@H](C)CCO)ccc1Cl | -8% | 1.06 |
| NC(=O)c1c(-c2ccc(Cl)cc2Cl)csc1NC(=O)c1csc2c1CCCC2 | -9% | 1.18 |
| CC(C)CCc1cc(NC(=O)Cc2c[nH]c3cc(F)ccc23)n(C)n1 | 1% | -0.18 |
| CC(C)S(=O)(=O)CC(=O)N1CCC12CCCC2 | -3% | 0.48 |
| CC(=O)N1CCN(CC(=O)Nc2nc3ccccc3[nH]2)CC1 | -6% | 1.12 |
| Nc1nc2cc(C(=O)N3CCN(C4CCCCC4)CC3)ccc2s1 | -9% | 1.23 |

| Structure (SMILES) | % Inhibition | Z score |
| --- | --- | --- |
| CC(C)c1ccccc1Oc1nc(Oc2ccccc2C(C)C)nc(Oc2ccccc2C(C)C)n1 | -18% | 2.1 |
| CCCc1nc(C)sc1C(=O)NCCn1ccc2cc(F)ccc21 | -4% | 0.53 |
| O=S(=O)(c1cccnc1)N1CC(Oc2cccnc2)C1 | -5% | 0.96 |
| Cc1cc(C)n(CCCNC(=O)C2CCCN(c3cccc4c3C(=O)N(C3CCOC(C)(C)C3)C4=O)C2)n1 (configuration not stated) | 11% | -1.4 |
| O=C(NCc1ccoc1)c1ccc2c(c1)OCO2 | -6% | 0.9 |
| CN(Cc1nc(C(F)(F)F)no1)[C@H]1CS(=O)(=O)C[C@@H]1O | -10% | 1.02 |
| O=S(=O)(CCn1cnnn1)N1CCO[C@H](C2CCCCC2)C1 | -6% | 0.97 |
| CC(=O)c1cc(Cl)c(Cl)cc1OCc1ncc(C)o1 | -8% | 0.81 |
| Cc1ccc(OCC(=O)N2N=C3CCCCC3C2(O)C(F)(F)F)cc1 (configuration not stated) | 4% | -0.44 |
| O=S(=O)(c1ccc(Cl)cc1F)N1CC[C@H](c2cnccn2)C1 | -4% | 0.72 |
| CCN(CC)c1ccc(N2CCN(C(C)=O)CC2)nn1 | -7% | 1.08 |
| COc1cccc(CNC(=O)Cn2nc3c(Oc4ccccc4)nc4ccccc4n3c2=O)c1 | -10% | 1.43 |
| CCOC(=O)CN(C(=O)CCNC(=O)C(C)(C)C)c1ccc(F)cc1 | -19% | 1.67 |
| COc1cccc(C(N[C@H]2CCOC2)c2cccc(OC)c2)c1 | -16% | 2.55 |
| Cc1nc(CN2CCN(c3ccccc3F)CC2)[nH]c1C | -10% | 2.01 |
| COc1ccc(N2CCN(C(=O)[C@H]3CC(=O)N(C4CC4)C3)CC2)cc1 | -1% | 0.12 |
| CN(CCCCc1ccccc1)C(=O)C1CCCC1N (configuration not stated) | -3% | 0.62 |
| O=C(NCc1cccc(N2CCCC2)c1)[C@H]1CC(=O)N(Cc2ccncc2)C1 | -11% | 1.76 |
| CC(=O)N1CCN(C(=O)[C@H](C2CCCC2)N2CCN(C(=O)c3cccs3)CC2)CC1 | 3% | -0.33 |
| CC(C)CN(C1CCOCC1)C1CN(Cc2ccc(F)cc2)C1 | -18% | 3.48 |
| CC1CN(CC(=O)Nc2sc3c(c2C(N)=O)CCC3)CC(C)O1 (configuration not stated) | -13% | 2.18 |
| CNc1cc(C(=O)N(C[C@H]2COc3ccccc3O2)C(C)C)ccn1 | -3% | 0.59 |

| Structure (SMILES) | % Inhibition | Z score |
| --- | --- | --- |
| O=C1C[C@@]2(CCN(C(=O)C3(Cc4cccc(F)c4)CCCCC3)C2)CN1 | -33% | 3.84 |
| CN(C)C(=O)c1c(O)cc(F)cc1F | -10% | 1.17 |
| Cc1ccc(S(=O)(=O)NCC2(c3cccs3)CC2)c(C)c1 | -11% | 1.45 |
| Cc1nnc(-c2ccc(Cl)cc2)nc1O | 0% | 0.05 |
| Cc1nnccc1C(=O)NC1(CO)CCCCCCC1 | -7% | 1.41 |
| Cc1cc(C(=O)N2CCN(c3nccs3)CC2)c2ccccc2n1 | -10% | 1.26 |
| N#Cc1ccc(-c2ccc(OS(=O)(=O)c3ccccc3)cc2)cc1 | -10% | 1.04 |
| Cc1nc(C)c(F)c(N2CCC(O)(Cc3ccccn3)CC2)n1 | -15% | 1.87 |
| Cc1noc(C)c1CCC(=O)N1CC(n2ccnn2)C1 | -5% | 0.76 |
| CCN(CC)c1onc(-c2ccccc2)c1CN(C(=O)c1ccc(F)cc1)C1CC1 | -1% | 0.12 |
| CCOCCN(C)C(=O)CCCn1cncn1 | 3% | -0.46 |
| Cc1cc(Br)oc1C(=O)NCc1ccc2c(c1)OCO2 | -8% | 1.58 |
| Cc1cc(=O)c(C(=O)N(C)Cc2nccs2)cn1C1CC1 | -3% | 0.36 |
| Brc1ccc2c(c1)CCCC[C@@H]2NCc1cocn1 | 1% | -0.12 |
| CCOCCCNc1cc([C@H]2CCOC2)nc(C)n1 | 2% | -0.27 |
| C[C@H](O)c1cn(C2CN(C(=O)C(C)(C)Oc3ccc(Cl)cc3)C2)nn1 | -3% | 0.45 |
| Cn1cc(Cl)cc1C(=O)N1CCCN(CC2CCC2)CC1 | -4% | 0.65 |
| C[C@@H](CC(F)F)C(=O)N1CCCCCC1 | -13% | 1.75 |
| COC(=O)c1c(NC(=O)c2cc(C)c(F)c(C)c2)nc2n1CCC2 | -14% | 1.89 |
| O=C1CCC(c2ccccc2)(c2ccccc2)CN1C1CCOCC1 | -6% | 0.53 |
| O=C(N[C@@H]1COCC[C@@H]1Oc1ccc(F)cc1)c1ccon1 | 1% | -0.17 |
| CCN1C[C@H](CN(C)C(=O)CN2C(=O)NC3(CCCC3)C2=O)Oc2ccccc21 | 6% | -0.87 |

| Structure (SMILES) | % Inhibition | Z score |
| --- | --- | --- |
| CC12CN(S(=O)(=O)c3ccccc3)CC(C)(CN(S(=O)(=O)c3ccccc3)C1)C2O (configuration not stated) | 11% | -1.43 |
| O=C(c1cc(F)c(F)c(O)c1F)N1CCOCC12CCCC2 | 3% | -0.31 |
| CC(C)(C)OC(=O)N1CCC(C(=O)O)C2C1C2(F)F (configuration not stated) | -4% | 0.78 |
| Cc1noc(C)c1CNC(=O)[C@H]1CCc2nn(C)c(=O)cc2C1 | -7% | 0.87 |
| CC1CCC(NC(=O)Cn2nnc(-c3ccncn3)n2)CC1 (configuration not stated) | 5% | -0.68 |
| Cc1cc(C)c(CCNC(=O)N2CCNC(=O)CC2)c(C)c1 | 22% | -2.53 |
| Cc1nn(C)c(C)c1C(O)CNC(=O)N[C@@H]1CCCOC1 (some centres not stated) | -13% | 1.33 |
| CCNC(=O)Nc1c[nH]nc1[C@H]1CCCN(C(=O)c2cccc(OC)c2)C1 | -10% | 0.88 |
| COc1ccc2nc(N3CC(C(=O)Nc4nc(C)c(C(=O)N(C)C)s4)C3)sc2c1 | 8% | -1.26 |
| O=S(=O)(Oc1cccc2cccnc12)c1ccc2ccccc2c1 | -11% | 1.75 |
| C=C(C)COc1ccccc1CNCCNC(=O)c1ccncc1 | -11% | 1.29 |
| O=C(N[C@H]1CCOC[C@@H]1O)c1ccc2ncsc2c1 | 14% | -1.9 |
| CC[C@@H]1OC2(CCN(c3ncnc4cc(Br)ccc34)CC2)NC1=O | 3% | -0.47 |
| O=C(CN1CCC[C@H](c2nc3ccccc3s2)C1)Nc1ccc(N2CCOCC2)cc1 | -1% | 0.13 |
| Cc1cc(F)ccc1OC1(C(=O)O)CCN(C(=O)C2(N)CCC2)CC1 | -6% | 1.19 |
| Cc1nc2ccc(NC(=O)[C@H](C)NC(=O)OCc3ccccc3)cc2s1 | 2% | -0.32 |
| CN1CCCN(C(=O)c2ccc(Cl)c(N3CCCC3=O)c2)c2nc3ccccc3nc21 | 0% | 0.08 |
| CN(C(=O)c1ccc(F)c(S(=O)(=O)N2CCCC2)c1)c1cc(-c2ccccc2)[nH]n1 | -1% | 0.1 |
| COC(=O)c1ccc2c(c1)N(C(=O)c1ccn(-c3ccc(F)cc3C)n1)CC(=O)N2 | -2% | 0.25 |
| Cc1sc(C)c(S(=O)(=O)N2CCCc3ccccc32)c1-c1ccno1 | -13% | 2.3 |
